The full ranking holds about 33,000 sequences; the median of “E-score (-0.5 to 0.5)” is about -0.036, and the highest 2% start at about 0.37. This is one part of the list.
Each sequence was assayed against T1, Yer064c (UniProt P40041) (assay: PBM E-score (8-mer binding enrichment) (E-score (-0.5 to 0.5)); higher = stronger / more preferred TF binding; most listed sequences are background and not binding sites). Settings: protein concentration: 200 nM; construct: GST-full length.
T1 sequence: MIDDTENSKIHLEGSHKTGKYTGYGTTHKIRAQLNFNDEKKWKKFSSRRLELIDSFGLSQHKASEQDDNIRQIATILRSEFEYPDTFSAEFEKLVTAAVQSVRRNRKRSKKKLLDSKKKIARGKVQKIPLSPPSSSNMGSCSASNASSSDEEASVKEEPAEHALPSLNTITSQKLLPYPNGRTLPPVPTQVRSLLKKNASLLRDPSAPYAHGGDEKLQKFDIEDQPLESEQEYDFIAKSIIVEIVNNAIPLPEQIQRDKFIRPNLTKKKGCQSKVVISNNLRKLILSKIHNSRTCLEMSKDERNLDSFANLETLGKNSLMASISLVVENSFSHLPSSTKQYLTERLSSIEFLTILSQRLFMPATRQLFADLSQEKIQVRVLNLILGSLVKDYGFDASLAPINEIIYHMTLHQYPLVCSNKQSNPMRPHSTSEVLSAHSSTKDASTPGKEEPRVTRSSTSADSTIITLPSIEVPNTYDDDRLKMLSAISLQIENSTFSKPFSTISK
In short: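 Each ungapped eight-base word and its reverse complement, pooled, received an E-score from the Universal PBM Analysis Suite. Underlying scans, normalised with masliner, recorded fluorescent anti-GST bound to GST-tagged yeast transcription factors. These were applied at about 100-200 nM to universal all-10-mer Agilent arrays double-stranded by primer extension.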

| Sequence | PBM E-score |
| --- | --- |
| AGTGTTCG | -0.0632 |
| TCATAACA | 0.225 |
| CCTTACGA | -0.0457 |
| ATCTCTAA | 0.0574 |
| AGAACCCG | -0.0558 |
| TAAAATTA | 0.0539 |
| ATTTATCC | 0.0618 |
| CACATAGA | 0.0848 |
| CACTCTCA | -0.0477 |
| GAAATTAA | 0.182 |
| GGCGTGGA | -0.179 |
| ACAGATCA | -0.0913 |
| CTCCGTTC | -0.0878 |
| GCATCAGC | -0.173 |
| TAGCATCA | -0.0227 |
| TCCCAAAA | 0.0626 |
| AATCTAGC | -0.132 |
| CACAGACC | 0.173 |
| CAAGCAGG | -0.138 |
| AATCTGAA | 0.17 |
| ACGGCCAA | -0.179 |
| AGCAACTC | -0.277 |
| CGTCTCGC | -0.19 |
| ATCAGACC | 0.0458 |
| GGAAGTCC | 0.0559 |

| Sequence | PBM E-score |
| --- | --- |
| GATGTAGC | -0.221 |
| AATGAGCT | -0.0581 |
| ATCGCAAC | -0.0402 |
| AATATGCA | 0.0901 |
| ACCTCTTA | 0.00063 |
| AAAGGCTC | -0.123 |
| TCTCACAA | 0.166 |
| CTGATTCA | 0.45 |
| GACTATCA | 0.394 |
| CGTCGATA | -0.16 |
| ATCAAAAC | 0.103 |
| CAGTTGGA | -0.0163 |
| GAAGAGTC | 0.426 |
| CCCTGATA | -0.166 |
| ACGGATGG | 0.0552 |
| ATGTTAAA | 0.0628 |
| CATTGCCC | -0.139 |
| AGTAATCC | 0.0831 |
| AGGGCGAG | -0.0576 |
| GCCTCATA | -0.152 |
| ACGAGGGC | -0.252 |
| ACTGGTCG | -0.0181 |
| GACAGCAA | -0.152 |
| CGGTAAAG | -0.0796 |
| GATCGCAC | -0.0638 |

| Sequence | PBM E-score |
| --- | --- |
| ACTCAAGC | 0.259 |
| ACGATCTA | -0.0776 |
| CTGGACCC | -0.199 |
| AGCGATTC | 0.247 |
| AGAGGCCC | -0.147 |
| ATTTTATC | -0.11 |
| GAGGTTAA | 0.12 |
| GCCAACCC | -0.343 |
| AAATACGA | -0.0358 |
| ACGCTACC | -0.186 |
| ACTCCTTG | 0.197 |
| AGTGAACG | -0.108 |
| CCATAGTA | 0.0975 |
| CTGCTACC | -0.0659 |
| ATTCTCGA | 0.162 |
| GCTTAGTA | 0.0649 |
| CAATTACC | -0.166 |
| ATCGTGAC | 0.212 |
| CTTCGGTC | 0.0776 |
| ATCTAAAT | 0.214 |
| CTTTCGCA | -0.0641 |
| AACTAAAC | -0.0459 |
| CGCCGGAG | -0.202 |
| CAGGAGGC | 0.0039 |
| GCCATCGA | -0.0186 |

| Sequence | PBM E-score |
| --- | --- |
| CGGCAAAA | -0.235 |
| CACGAGGC | 0.0104 |
| ACGAGGCA | -0.21 |
| CAAGGTAG | -0.118 |
| GGGGTCCA | -0.261 |
| GCAAAAGC | -0.037 |
| CGGTCGTA | -0.192 |
| AAGCAATT | 0.102 |
| AGATGTGA | 0.0875 |
| GCATTTTA | -0.135 |
| TATGAAGA | 0.13 |
| CGTGTGAG | 0.177 |
| CATCGACC | -0.0742 |
| ACGGCACT | -0.168 |
| AAAACTCA | 0.143 |
| GAATGATA | 0.0116 |
| CCGTCCTA | -0.149 |
| ACAGCTAT | -0.0482 |
| GCTGTTAA | 0.0119 |
| CAGTGACG | -0.0709 |
| ACGCGTTG | -0.141 |
| ATCGGGTA | -0.0263 |
| TACATCGA | -0.0874 |
| CTTACGCC | -0.16 |
| AGGAATCC | -0.0672 |

| Sequence | PBM E-score |
| --- | --- |
| CCAGTTCG | -0.128 |
| CAGGCCCA | -0.256 |
| GCCTAAAA | 0.0466 |
| CCTGCGCA | -0.352 |
| GTACCAAC | -0.0957 |
| ATCGAAAC | -0.0975 |
| ACGCTGAC | 0.211 |
| CATAAGAG | 0.01 |
| AGAAGCTC | -0.102 |
| AACGGTGG | -0.143 |
| GGAGTGCC | -0.362 |
| CATGCAGC | -0.068 |
| AGAGAGGG | -0.162 |
| AAAGCTGC | -0.134 |
| ATGCCTCG | -0.0563 |
| ACCGGGCA | -0.289 |
| AAATGTCT | 0.107 |
| AATGAGCC | 0.162 |
| GTCAATCA | 0.389 |
| CCAAGATC | 0.0609 |
| ATCTTCCC | -0.067 |
| AACCGATG | 0.0056 |
| ACGATGAC | 0.333 |
| CGCGTCCG | -0.00585 |
| GCCCGACA | -0.192 |

| Sequence | PBM E-score |
| --- | --- |
| ACTGCACG | -0.049 |
| CGCTCGTC | -0.285 |
| GATGATTA | 0.47 |
| ACGTTTCC | -0.197 |
| CGTCCGCA | -0.0638 |
| CGCTCCAA | -0.267 |
| CGGAGTTA | -0.0037 |
| GTTCTAAA | -0.0695 |
| CCCCGAGA | -0.181 |
| AACACTTG | 0.143 |
| GCCTACAA | -0.0831 |
| TCGAGGAA | -0.0713 |
| GAGGAGTA | 0.00665 |
| GCAACGTA | -0.269 |
| CACACTTA | 0.0285 |
| AGGCCTGA | 0.0122 |
| AGTGGCTG | 0.00091 |
| CGATCCAA | -0.118 |
| CTATGTAA | 0.121 |
| ATCGAATG | 0.0236 |
| AGCACTAT | -0.138 |
| CTAAAAGA | 0.287 |
| GCTTATCA | -0.189 |
| ACAACATC | -0.143 |
| TATATTGA | 0.167 |

| Sequence | PBM E-score |
| --- | --- |
| ATCCGATC | 0.00143 |
| AATAACGC | -0.0376 |
| CTCGTGGC | -0.178 |
| CCCCGATA | -0.12 |
| GGTGAACC | 0.123 |
| CCCTTAAG | -0.0521 |
| AGTCTATC | 0.182 |
| AACGGCCT | -0.421 |
| CCTAAGTA | 0.137 |
| AGTTAGAA | 0.0342 |
| CCGGTGTA | -0.162 |
| GGCTAACA | 0.101 |
| ACTCGTAC | 0.186 |
| ATTAACTA | 0.169 |
| CCAACTGG | -0.185 |
| ATACCGAC | -0.0361 |
| ATTAATGG | 0.0338 |
| ATATACCA | -0.0262 |
| GCTGAGTA | 0.212 |
| CCATATAG | 0.0187 |
| TAGGTGGA | 0.0243 |
| GGATCATA | 0.0464 |

Reference: the supplement of paper PMC3334620
